The values below come from patent US20230346718A1, “METHOD OF TREATING, AMELIORATING AND/OR […]” (YALE UNIVERSITY, priority 2022, published 2023).

Each structure is given as a SMILES string.

The subject of data set [1] is patients with treatment-resistant major depressive disorder (MDD). Description: Next day depression rating, clinician administered HAMD-17.
The subject of data set [2] is healthy controls (HC) and MDD participants. Description: Drug desirability / reinforcement and abuse liability measures. The data set is classed as in vivo, human. Conditions: for overall willingness to use DMT (0=not at all to 100=most of all): mean (SD).

For the molecule `CN(C)CCc1c[nH]c2ccccc12` [DMT, N,N-dimethyltryptamine], the “Difference in HAMD-17 between the 0.1 mg/kg session and 0.3 mg/kg session” value in data set [1] (95% CI −6.87 to −0.013, p=0.044) was −3.5. In addition, in data set [1] (IV 0.1 and 0.3 mg/kg, treatment-resistant MDD), the “antidepressant effect (in words)” value is “produced next day (rapid) antidepressant effect”. In addition, the “mean reduction in HAMD-17 score” value in data set [1] (MDD participants, day after 0.3 mg/kg IV) was “about 4.5 points”. Also, the “HAMD-17 score, mean difference from baseline” value in data set [1] (MDD participants, day after 0.3 mg/kg IV DMT, 95% CI −7.80 to −1.20, p=0.017) is reported as −4.5 points. In addition, in data set [1] (baseline vs day after 0.3 mg/kg IV), the “Hedge's g effect size of HAMD-17 change” value stood at 0.75. In data set [1] (mean (SD), baseline 23.86 (SD 4.45)), the “HAMD-17 depression score post-0.3 mg/kg session” value was 20.20 (SD 7.82). Besides, the figures for the “overall willingness to use DMT (0=not at all to 100=most of all)” value in data set [2] (0.1 mg/kg session) and in data set [2] (0.3 mg/kg session) were 24.00 (SD 17.91) and 22.44 (SD 22.72), respectively. Also, in data set [2] (immediately after the dosing session), the “amount participants were willing to pay for the experience ($0-100)” value is recorded as 25 $.
